Results reported in PubChem BioAssay AID504832 (National Center for Advancing Translational Sciences (NCATS), 2011).
“And” between values parts separate entries of the source, which are not always exact repeats. Equal values may be shown once. In all, about 310,000 compounds went through this assay and about 18,000 (5.8%) were called active. The shares of active, inactive and inconclusive entries below differ from those in the screen. Calls follow the shape of the dose curve; as a rule, active = well fitted inhibition curve with a large enough effect; inconclusive = small, poorly fitted or top-dose-only effect, or another doubt; inactive = no such curve, though single readings can be large or run the other way. Where the call is inconclusive, the potency comes from a doubtful curve fit.

Assay: Primary qHTS for delayed death inhibitors of the malarial parasite plastid, 48 hour incubation
Conditions: P. falciparum luciferase growth in erythrocytes; series mostly up to 28.7 µM
How it was run: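 Firefly luciferase activity from engineered P. falciparum reports growth; inhibitors lower the luminescent signal. Cultures contained 2% hematocrit erythrocytes at 0.1% final parasitemia.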
Potency is read from the fitted curve at half-maximal effect; tags tell the direction and shape of the fitted curve.

SMILES	Potency
Cc1cc(S(=O)(=O)Nc2cccc(O)c2)c(C)s1	inconclusive: 0.0465 µM [inhibitor, full curve, poor fit]
Cc1ccc(S(=O)(=O)NNC(=O)c2cc(C)cs2)cc1	inactive
O=C1NC(=Nc2ccccc2)S/C1=C\C=C\c1ccco1	inconclusive: 18.5 µM [inhibitor, single point]
CCOC(=O)c1cccc(NC(=O)CCc2nnc3ccc(N4CCN(C)CC4)nn23)c1	inconclusive: 18.5 µM [inhibitor, partial curve, poor fit]
COc1ccc2c(c1)[nH]c1c(=O)n(/N=C/C3C(C)C=C(C)CC3C)c(=O)[nH]c12 (centres undefined)	inactive
COc1ccccc1CNC(=O)c1c(-c2ccccc2Cl)noc1C	active: 10.4 µM
COC(=O)c1ccc(C23CC4(C2)[C@H](CN(CC2CCCCC2)[C@@H]4c2ccccc2)C3c2ccc(C(F)(F)F)cc2)cc1 (some centres undefined)	inconclusive: 1.85 µM [inhibitor, full curve, poor fit]
CC1=CC(C)(C)Nc2ccc(OC(=O)c3cccnc3)cc21	active: 5.22 µM
Cc1ccc(-c2csc(NC(=O)c3ccc([N+](=O)[O-])o3)n2)cc1	active: 13.1 µM
NC(=O)c1nsc(C(=O)N(c2ccc(Cl)cc2)C(C(=O)NCC2CCCO2)c2cccs2)c1N (centres undefined)	inconclusive: 10.4 µM [inhibitor, single point]
CC(=O)c1ccccn1	inconclusive: 18.5 µM [inhibitor, single point]
Cc1cc[n+](CC(=O)Nc2cc(C(F)(F)F)ccc2Cl)cc1	inconclusive: 9.28 µM [inhibitor, single point]
CCN(CC)S(=O)(=O)c1cccc(NC(=O)C2SC(=Nc3ccc(C)cc3C)C(C(=O)NCC3CCCO3)=C2N)c1 (centres undefined)	active: 9.28 µM
COc1ccc(CN(Cc2ccc(OC)cc2)C(=O)c2cccs2)cc1	inconclusive: 0.928 µM [inhibitor, full curve, poor fit]
O=C(CCc1ccccc1)Nc1ccnn1C1CCN(Cc2ccc(OCCO)cc2)CC1	inactive
Cc1cc(C(=O)Cn2cnc3cc([N+](=O)[O-])ccc3c2=O)c(C)n1CC1CCCO1 (centres undefined)	inconclusive: 11.7 µM [inhibitor, single point]
COc1ccc(CC(=O)Nc2cc(S(=O)(=O)N3CCCCC3)ccc2C)cc1OC	inconclusive: 9.28 µM [inhibitor, partial curve]
Cc1c(C#N)c2ccccc2n1CCOc1ccccc1F	active: 1.17 µM
COC(=O)c1ccc(-n2nnnc2SCc2ccccc2OC)cc1	inactive
CCCN1CCN(CCCNC(=O)C(CC)n2nc(C)n3c(cc4occc43)c2=O)CC1 (centres undefined)	inactive
COc1ccc(C)cc1NCc1ccc(OC)c(C)c1OC	inconclusive: 1.17 µM [inhibitor, single point]
Cc1ccc(C(=O)NCC(=O)NCC(c2cccs2)N2CCOCC2)cc1 (centres undefined)	inconclusive: 9.28 µM [inhibitor, single point]
CCOC(=O)c1nn(-c2cccc(OC)c2)c(-c2ccccc2)c1C(=O)c1ccccc1	inconclusive: 13.1 µM [inhibitor, single point]
CCOc1ccccc1NC(=O)c1cccc(NC(=O)c2ccco2)c1	inconclusive: 10.4 µM [inhibitor, single point]
CCCCCCc1c(O)nc(SCCN(C)C)[nH]c1=O	inactive

SMILES	Potency
Cc1ccc(-c2nnc(Nc3ccc(C(=O)N(C)C)cc3)c3ccccc23)cc1S(N)(=O)=O	active: 9.28 µM
CN(C)c1ccnc2c[cH-]cc12.[Fe].c1ccc(-[c-]2[c-](-c3ccccc3)[c-](-c3ccccc3)[c-](-c3ccccc3)[c-]2-c2ccccc2)cc1 (centres undefined)	inconclusive: 2.33 µM [inhibitor, partial curve, poor fit] and inconclusive: 294 nM [inhibitor, full curve, poor fit]
CCCN(CC(=O)Nc1ccccc1C)C(=O)C1CC(=O)N(c2ccccc2C(C)CC)C1 (centres undefined)	inconclusive: 5.86 µM [inhibitor, partial curve]
C=CCC1(CC=C)CCCN1C(=O)c1cc(COc2cccc(C(F)(F)F)c2)on1	inconclusive: 18.5 µM [inhibitor, single point]
CCCc1n[nH]c2c1/C(=N/O)CC(c1ccccc1)C2 (centres undefined)	inconclusive: 18.5 µM [inhibitor, single point]
Cc1ccccc1N1C(=O)C2CCCN2C1=S (centres undefined)	inconclusive: 18.5 µM [inhibitor, single point]
O=C(N/N=C/C(Br)=C/c1ccccc1)c1ccccc1[N+](=O)[O-]	inconclusive: 13.1 µM [inhibitor, single point]
CCN(C(=O)COc1ccc(C(=O)c2ccccc2)cc1)c1ccccc1	inconclusive: 11.7 µM [inhibitor, partial curve]
CCNc1nc(NCC)n2c(SCC(=O)Nc3cccc(Cl)c3)nnc2n1	active: 11.7 µM
NC(=O)N=Nc1c2[nH]c3ccccc3nc-2c2ccccc12	inconclusive: 18.5 µM [inhibitor, single point]
Cc1ccc(NC(=O)CNc2ccc(Cl)c(Cl)c2)cc1S(=O)(=O)N(C)C	inactive
CCOc1ccc(C(C(=O)NC2CCCC2)N(C(=O)c2snc(C(N)=O)c2N)C2CCCC2)cc1 (centres undefined)	inconclusive: 13.1 µM [inhibitor, partial curve]
Cc1cc(C)c(NC(=O)Cn2ncc3ccccc32)c(C)c1	inactive
CN(C)CCN(Cc1ccccc1)C(=O)C1CCN(c2ncnc3c2nc2n3CCCCC2)CC1	inconclusive: 16.5 µM [inhibitor, single point]
CC(=O)N1CCCc2cc(S(=O)(=O)NC(C(=O)NC(C)c3ccccc3)C(C)C)ccc21 (centres undefined)	inconclusive: 0.0828 µM [inhibitor, full curve, poor fit]
C[n+]1ccc(C(=O)N/N=C/c2ccco2)cc1	inactive
O=C(CSc1n[nH]c(=O)[nH]c1=O)Nc1cccc(S(=O)(=O)N2CCOCC2)c1	inactive
CN1CCN(c2ccccc2NC(=O)COc2ccc(C3CCCCC3)cc2)CC1	inconclusive: 2.08 µM [inhibitor, partial curve, poor fit]
COCc1cc(=O)n2[nH]c(C)nc2n1	inactive
CC(C)CC(=O)c1c[nH]c(C(=O)NCc2cccnc2)c1	active: 10.4 µM
Cc1cc(N2CCCCC2)nc(NCc2ccccc2)n1	active: 3.29 µM
CC(=O)Nc1ccc(S(=O)(=O)N(C)CC(=O)Nc2ccc(F)c(F)c2F)cc1	inconclusive: 11.7 µM [inhibitor, single point]
CC(C)(C)NC(=O)CN(C(=O)c1snc(C(=O)NC2CCCCC2)c1N)c1ccccc1F	active: 11.7 µM
Fc1ccc(CNC(=S)Nc2ccc(Cl)cc2)cc1	inactive
O=C1C=C(c2cc(C(F)(F)F)cc(C(F)(F)F)c2)C[C@@H](c2ccc3c(c2)OCO3)C1	active: 8.28 µM

SMILES	Potency
O=C(N/N=C/c1c(O)n(Cc2ccc(F)cc2)c(=O)[nH]c1=O)c1ccccc1O	inactive
O=C(N/N=C/c1cc(Br)cs1)c1c[nH]c2ccccc12	inconclusive: 18.5 µM [inhibitor, single point]
O=C1CSC(c2cccc([N+](=O)[O-])c2)N1CCc1ccccc1 (centres undefined)	inconclusive: 11.7 µM [inhibitor, single point]
COc1ccc(/C(C)=N/NC(=O)c2ccccc2OCc2ccccc2)c(OC)c1	inconclusive: 18.5 µM [inhibitor, single point]
COCCCNC(=O)C(=O)Nc1ccc2c(c1)N(S(=O)(=O)c1cccs1)CCC2	inconclusive: 10.4 µM [inhibitor, partial curve]
Cc1cc(=O)oc2cc(NC(=O)C(C)Oc3ccccc3)ccc12 (centres undefined)	inactive
COc1ccc(-c2cc(N3C(=O)Nc4ccccc4N3O)n[nH]2)cc1OC	inactive
CCOC(=O)c1sc(NN=C(C(=O)OC)C(=O)OC)c(C(=O)OCC)c1C	inconclusive: 18.5 µM [inhibitor, single point]
CC(O)CN(C)CC/C=C1/c2ccccc2CSc2ccccc21 (centres undefined)	inconclusive: 13.1 µM [inhibitor, single point]
Cc1ccc(OCc2cc(C(=O)N(C)Cc3cc(C4CC4)n[nH]3)no2)cc1C	inactive
Cc1ccc2cc(/C=N/NC(=O)c3ccc(F)cc3)c(Cl)nc2c1	inactive
CCN(CC)c1ccc2c(O)cc(=O)oc2c1	inactive
Cc1cc2c(C)nc3ccccc3c2o1	inactive
CC(C)CN1CCC(=O)N(CCN=[N+]=[N-])CC1	inactive
Brc1cccc(CSc2nnc(-c3ccncc3)o2)c1	inactive
Cc1ccc(NC(=O)c2[nH]cnc2C(=O)NN)cc1	inactive
O=C(OCC(=O)N1CCCc2ccccc21)c1cc(Cl)ccc1O	inactive
COc1ccc(CN2CCN(C(=O)c3cccc4ccccc34)CC2)cc1Br	inconclusive: 10.4 µM [inhibitor, single point]
O=C1c2ccncc2C(=O)N1CO	inactive
COc1cc2c3cc1Oc1cc(ccc1O)C[C@@H]1c4c(cc(OC)c(O)c4Oc4ccc(cc4)C[C@@H]3N(C)CC2)CC[N+]1(C)C	inactive
COc1cc2c(cc1OC)C(C1c3cc4c(cc3CCN1C)OCO4)OC2=O (centres undefined)	inactive
COc1ccc(N(C(=O)c2snc(C(N)=O)c2N)C(C(=O)NC2CCCCC2)c2ccc(C)o2)c(OC)c1 (centres undefined)	active: 13.1 µM
O=S(=O)(c1ccc(-c2ccon2)s1)N1CCN(c2ccncc2)CC1	active: 1.31 µM
COc1ccc(O[C@H]2C=C[C@@H](c3ccccc3)O[C@@H]2COC(=O)CC/C(C)=N/O[C@@H](C)c2cc(-c3c(C)cc(C)cc3C)no2)cc1	inconclusive: 2.33 µM [inhibitor, full curve]
